Assay results as given in publication PMC4773420 (Nature Communications, 2016).
Results are given in words; binding and its absence hold for the method and conditions named. For some of these results: Binding seen in cells or lysates may run through a third protein. Some binding calls cover weakened binding; strength is not graded here. For some of these results: Where a sequence is shown, tags or fusion partners need not be part of it. Each block holds one substance with its values, some of them ahead of it.

Sequences of proteins named here, by UniProt entry; tags and fusion partners are left off. A change or cut given only in a name is not applied to a line headed by its entry. A line that says so, or that is headed by a name, gives the form on record, which may keep a tag or linker. Residues count along the entry.
UniProt P11940: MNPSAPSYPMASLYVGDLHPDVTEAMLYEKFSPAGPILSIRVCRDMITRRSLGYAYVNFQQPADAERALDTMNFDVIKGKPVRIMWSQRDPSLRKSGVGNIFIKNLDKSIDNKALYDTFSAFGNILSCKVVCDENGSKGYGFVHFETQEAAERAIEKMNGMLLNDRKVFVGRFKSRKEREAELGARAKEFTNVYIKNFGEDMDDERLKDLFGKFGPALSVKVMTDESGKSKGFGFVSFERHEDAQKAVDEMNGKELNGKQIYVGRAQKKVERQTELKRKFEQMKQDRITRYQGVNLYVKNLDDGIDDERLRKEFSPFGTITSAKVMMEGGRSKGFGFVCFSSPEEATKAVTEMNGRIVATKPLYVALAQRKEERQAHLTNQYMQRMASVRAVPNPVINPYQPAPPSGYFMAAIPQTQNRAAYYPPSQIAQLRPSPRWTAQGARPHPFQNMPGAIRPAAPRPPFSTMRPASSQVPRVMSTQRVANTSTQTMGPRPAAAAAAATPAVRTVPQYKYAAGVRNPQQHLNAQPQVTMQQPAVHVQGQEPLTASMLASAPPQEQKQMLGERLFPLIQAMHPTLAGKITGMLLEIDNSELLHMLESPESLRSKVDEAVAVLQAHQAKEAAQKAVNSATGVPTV
6His-PABPC1(1–190): residues 1-190 of P11940
6His-PABPC1(1–99): residues 1-99 of P11940
6His-PABPC1(85–190): residues 85-190 of P11940
GFP-BTG2(APRO)-HA (P78543, residues 1-126): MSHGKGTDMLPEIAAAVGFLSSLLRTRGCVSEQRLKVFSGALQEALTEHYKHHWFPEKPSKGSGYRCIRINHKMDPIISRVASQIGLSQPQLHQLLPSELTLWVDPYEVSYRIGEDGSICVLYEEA
BD-BTG2(APRO)boxC (P78543, form named): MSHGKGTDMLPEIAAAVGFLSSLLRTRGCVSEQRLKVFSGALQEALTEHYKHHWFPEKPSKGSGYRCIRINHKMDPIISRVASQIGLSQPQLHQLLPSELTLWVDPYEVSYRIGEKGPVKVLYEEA
UniProt P62324, residues 1-128: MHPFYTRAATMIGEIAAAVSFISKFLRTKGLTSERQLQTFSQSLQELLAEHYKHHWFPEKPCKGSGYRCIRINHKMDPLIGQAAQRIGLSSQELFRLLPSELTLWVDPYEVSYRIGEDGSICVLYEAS
UniProt Q9UIV1: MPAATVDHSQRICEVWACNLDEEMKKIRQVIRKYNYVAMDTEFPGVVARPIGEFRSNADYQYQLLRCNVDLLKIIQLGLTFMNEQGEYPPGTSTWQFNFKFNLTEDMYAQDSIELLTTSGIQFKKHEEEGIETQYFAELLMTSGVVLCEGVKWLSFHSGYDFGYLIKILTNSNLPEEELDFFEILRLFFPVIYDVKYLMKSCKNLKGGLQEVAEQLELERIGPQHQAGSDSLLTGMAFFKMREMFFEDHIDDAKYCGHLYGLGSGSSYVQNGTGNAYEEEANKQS

Tests used:
[1] = biological target: 6His-PABPC1(1–99) (human) (UniProt P11940); assay: pull-down; PD with recombinant proteins expressed in E. coli (Supplementary Fig. 8a); His- or GST-PD not told
[2] = biological target: 6His-PABPC1(85–190) (human) (UniProt P11940); assay: pull-down; His-PD: GST- and His-proteins co-expressed in E. coli; lysate on Ni-NTA resin 1 h at 4 °C in 50 mM Tris-HCl pH 8.0, 40 mM imidazole, 300 mM NaCl, 1 mM β-mercaptoethanol, 0.1% Igepal; SDS-PAGE, Coomassie
[3] = biological target: 6His-PABPC1(1–190) (human) (UniProt P11940); assay: as above
[4] = biological target: 6His-PABPC1(1–99) (human) (UniProt P11940); assay: as above
[5] = biological target: 6His-PABPC1(1–190) (human) (UniProt P11940); assay: pull-down; PD with BTG2, PABPC1 and CAF1 together (Supplementary Fig. 3a); proteins co-expressed in E. coli, lysates; His- or GST-PD not told
[6] = biological target: T1, BD-Tob1(APRO) (human) (UniProt P50616); assay: two-hybrid; pairwise; diploid yeast Y187/L40 with LexA-Binding-Domain and Gal4-Activating-Domain plasmids; β-galactosidase assays (Beta-Glo)
T1 sequence: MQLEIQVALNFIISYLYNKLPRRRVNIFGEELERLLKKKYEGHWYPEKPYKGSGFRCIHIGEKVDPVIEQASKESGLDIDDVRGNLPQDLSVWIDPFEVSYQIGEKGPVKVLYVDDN

[7] = biological target: T2, GFP-Tob1(APRO)-HA (human) (UniProt P50616); assay: co-IP; HEK293 cells transfected with HA-tagged GFP fusions; lysis in IPP150 (10 mM Tris-HCl pH 8.0, 150 mM NaCl, 1% Igepal CA-630); anti-HA agarose 1 h at 4 °C; blot with anti-GFP and anti-CNOT7
T2 sequence: T1 sequence

[8] = biological target: BD-BTG2(APRO)wt (human) (UniProt P78543); assay: two-hybrid; screen of a human fibroblast cDNA library with a LexA-Binding-Domain-BTG2(APRO) bait (Hybrigenics)
[9] = biological target: BD-BTG2(APRO)wt (human) (UniProt P78543); assay: two-hybrid; pairwise; diploid yeast Y187/L40 with LexA-Binding-Domain and Gal4-Activating-Domain plasmids; β-galactosidase assays (Beta-Glo)
[10] = biological target: BD-BTG2(APRO)boxC (human) (UniProt P78543); assay: as above
[11] = biological target: BD-BTG1(APRO) (human) (UniProt P62324); assay: as above
[12] = biological target: GFP-BTG2(APRO)-HA (human) (UniProt P78543); assay: co-IP; HEK293 cells transfected, treated with 0.25 mM Dithio-bis Succinimidyl Propionate 30 min, lysed in Triton-lysis buffer (10 mM Tris-HCl pH 7.5, 150 mM NaCl, 0.5 mM EDTA, 0.5% Triton X-100) with 40 μg/ml RNAse A; GFP-Trap 1 h at 4 °C; blot with anti-GFP and anti-PABPC1

Substance: GST-BTG2(APRO) (from UniProt P78543 1-126) (domain or fragment)
binding [1]: binds
binding [2]: binds weakly
binding [3]: binds
binding [4]: binds
binding [5]: binds

Substance: CNOT7 (CAF1 paralogue), endogenous (from UniProt Q9UIV1 1-285) (enzyme)
binding [7]: binds

Substance: PABPC1, endogenous (from UniProt P11940 1-636)
binding [12]: binds

More lines, now with the values ahead:

binding [6]: binds
Substance: AD-CNOT7 (from UniProt Q9UIV1 11-262) (enzyme)

binding [8]: binds
binding [9]: binds
binding [10]: no binding
binding [6]: no binding
binding [11]: binds
Substance: AD-PABPC1(1–146) (from UniProt P11940 1-146) (domain or fragment)
